# Laboratory results published in PubChem BioAssay AID686971 (National Center for Advancing Translational Sciences (NCATS), 2013).
# The whole screen tested about 360,000 compounds, of which about 7,500 (2.1%) were called active. Inconclusive means that the source gave no clear call. Such entries were picked first, then a sample of the others. Calls follow the shape of the dose curve; as a rule, active = well fitted cell-killing curve with a large enough effect; inconclusive = small, poorly fitted or top-dose-only effect, or effect the other way, or another doubt; inactive = no such curve, though single readings can be large or run the other way. Potencies of inconclusive entries are left out as doubtful fits.
# Experiment: qHTS for induction of synthetic lethality in tumor cells producing 2HG: qHTS for the HT-1080-IDH1KD cell line;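 as to activity, negative = toxicity: 0% = DMSO wells and -100% = cell-free medium wells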
# Details: HT-1080 IDH1 knockdown viability, ATP luminescence, 48 h; activity, negative = toxicity: at 46.1 µM (top of the series) unless noted
# In short: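 In this qHTS, HT-1080 cells depleted of IDH1 are exposed for 48 h at 37 °C to compound titrations. Toxicity is scored from CellTiter-Glo luminescence, with DMSO as full viability and medium alone as none.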
# Potency is read from the fitted curve at half-maximal effect; tags tell the direction and shape of the fitted curve.
SMILES,Potency,"activity, negative = toxicity"
O=C(CSc1nnnn1-c1cccc(F)c1)Nc1nc2ccccc2s1,"inconclusive [cytotoxic, single point]",
O=C(COc1ccc(Br)cc1CNC1CCCCC1)NCCc1ccccc1,active: 18.4 µM,
CCOCCCNC(=O)c1cc2c(=O)n3cccc(C)c3nc2n1C,"inconclusive [cytotoxic, full curve, poor fit]",
COc1cc(C(=O)c2cc3c(cc2C)OCO3)cc(OC)c1OC,"inconclusive [cytotoxic, full curve]",
O=C(CSC1CC(=O)N(CCc2ccccc2)C1=O)Nc1ccc(Br)cc1 (stereo unspecified),"inconclusive [cytotoxic, partial curve]",
COc1ccc(CC(=O)N2CCOCC2)cc1OC,inactive,
Cc1ccc(-c2ccc(CN3C(CC(C)C)C(=O)N(Cc4cn(CCC5OCCCO5)nn4)CCS3(=O)=O)cc2)cc1 (stereo unspecified),"inconclusive [cytotoxic, single point]",
CC(C)=Cc1c(O)nc2ccccn2c1=O,inactive,
CC1(C(=O)NS(=O)(=O)c2ccc(F)cc2F)CCN1C(=O)c1ccc(C2CCCCC2)cc1 (stereo unspecified),"inconclusive [rising, single point]",
COc1ccc(-c2cc(C(=O)Nc3cc(OC)c(OC)c(OC)c3)no2)cc1OC,inactive,
OC(CN1CCNCC1)Cn1c2ccccc2c2ccccc21 (stereo unspecified),"inconclusive [cytotoxic, partial curve]",
Cc1cc(N2CCN(C)CC2)nc2ccc(NC(=S)N3CCCCC3)cc12,inactive,
Cc1ccc(S(=O)(=O)N2CCCC2C(=O)N(C)Cc2cccs2)cc1 (stereo unspecified),inactive,
CCN1CCN(c2cc(C)c3cc(NC(=S)NCCCN4CCc5ccccc5C4)ccc3n2)CC1,active: 20.6 µM,
COc1ccc(CN2CCN(c3ccccn3)CC2)cc1OCc1ccccc1,"inconclusive [cytotoxic, single point]",
COc1ccc(-c2c(-c3ccccc3)c(C(=O)C(=O)NCCCN(C)C)n3ccc4cc(OC)c(OC)cc4c23)cc1OC,"inconclusive [cytotoxic, single point]",
Cc1c(CN2CCC(CO)(CCOc3ccccc3)CC2)[nH]c2ccc(Cl)cc12,active: 23.1 µM,
O=C(c1ccc(Cl)c(Cl)c1)N1CCC(=O)N([C@H](COCc2ccccc2)Cc2ccccc2)CC1,"inconclusive [cytotoxic, single point]",
N#C/C(=C\c1ccc(O)c([N+](=O)[O-])c1)c1nc2ccccc2s1,"inconclusive [cytotoxic, single point]",
COc1ccc(CN(Cc2ccccc2)C(=O)c2ccno2)cc1COc1ccc(NC(C)=O)cc1,inactive,
CC1CCc2[nH]c3ccc(C(=O)NCCCOC(C)C)cc3c2C1 (stereo unspecified),inactive,
C=CCNc1oc(-c2cccs2)nc1S(=O)(=O)c1ccccc1,inactive,
COc1ccc(CNCC(O)(c2ccc(Cl)cc2)c2ccc(Cl)cc2)cc1,"inconclusive [cytotoxic, single point]",
COc1ccc(NC(=O)N2C3CCCC2CC(NC(=O)c2ccccc2)C3)cc1 (stereo unspecified),inactive,

SMILES,Potency,"activity, negative = toxicity"
CC1CNCCN1S(=O)(=O)c1cccc2cnccc12 (stereo unspecified),"inconclusive [cytotoxic, single point]",
O=C1C(=O)c2c(ccc3ccccc23)-c2ccccc21,active: 1.84 µM,
CC1(C(=O)NC2CCN(Cc3ccccc3)CC2)CCN1Cc1ccc2ccccc2c1 (stereo unspecified),"inconclusive [cytotoxic, single point]",
O=C(N/N=C/c1cc(Br)ccc1O)c1ccncc1,"inconclusive [cytotoxic, partial curve]",
COCc1cc(C)nc(OCC(=O)N/N=C/c2ccccc2O)c1C#N,active: 18.4 µM,
CC(CNc1ccc(Cl)cc1)(CNc1ccc(Cl)cc1)[N+](=O)[O-],"inconclusive [cytotoxic, partial curve]",
O=C(NNC(=O)c1cc(S(=O)(=O)N2CCCCC2)ccc1Cl)c1ccccc1O,"inconclusive [cytotoxic, single point]",
O=C(C1CCCN(S(=O)(=O)c2ccc(F)cc2)C1)N1CCCCC1 (stereo unspecified),inactive,
Cc1cnn(CCC(=O)NNC(=S)Nc2ccccc2)c1,active: 8.91 µM,
O=C(O)CNS(=O)(=O)c1ccc2c(c1)Cc1cc(S(=O)(=O)NCC(=O)O)ccc1-2,inactive,
COc1ccc(C=C(C(=O)c2ccccc2)C(=O)c2ccccc2)cc1,"inconclusive [cytotoxic, single point]",
Cc1cc(C(=O)OCC(=O)NCCCN2CCCC2=O)c2ccccc2n1,inactive,
C=CCNc1ncnc2c1[nH]c1ccc(C)cc12,"inconclusive [cytotoxic, single point]",
CCN(CC)C(=O)c1ccc(COc2ccccc2Cl)o1,inactive,
CCCC(=O)Nc1ccc2nc(SCC(=O)Nc3ccc(N4CCOCC4)c(Cl)c3)sc2c1,"inconclusive [cytotoxic, single point]",
C/C(=N\NC(=S)NC(C)C)c1ccc(Cl)s1,inactive,
CC1(C)Cc2c(sc3[nH]c(=S)n(Cc4ccco4)c(=O)c23)CO1,"inconclusive [cytotoxic, single point]",
Cc1ccc(OCC(=O)N2CCN(c3nnc(-c4ccc(C)cc4)c4ccccc34)CC2)cc1,"inconclusive [cytotoxic, single point]",
CS(=O)(=O)N(CC(O)CON=C1c2ccccc2-c2ccccc21)c1ccc(F)cc1 (stereo unspecified),"inconclusive [cytotoxic, single point]",
COc1ccc(NC(C)=[N+](C)CCNS(=O)(=O)c2ccc(Cl)cc2)cc1,"inconclusive [cytotoxic, single point]",
COc1ccc(C(=O)Nc2ccc(NS(=O)(=O)c3ccccc3)cc2)cc1OC,inactive,
Cc1cc(C)cc(Oc2cc(NC(=O)c3cn(C)nc3C)cc([N+](=O)[O-])c2)c1,"inconclusive [cytotoxic, single point]",
O=C(CC1(O)C(=O)N(Cc2ccc3c(c2)OCO3)c2ccccc21)c1ccccc1 (stereo unspecified),inactive,
CCCCn1c(-c2cccc(C)c2)nc2cc3[nH]c(=O)c(C(C)C)nc3cc21,"inconclusive [cytotoxic, single point]",

SMILES,Potency,"activity, negative = toxicity"
O=C(/C(=C/O)N=Nc1ccccc1)c1ccc(Cl)cc1,active: 18.4 µM,
CCc1ccc(C(=O)NNc2ccc(C)c(Cl)c2)cc1,"inconclusive [cytotoxic, full curve]",
CC(=O)Nc1ccc(S(=O)(=O)Nc2nnc(C(C)(C)C)s2)cc1,"inconclusive [cytotoxic, single point]",
CCCCn1c(N)c(N(CC(C)C)C(=O)C2CC(=O)N(c3ccc(CC)cc3)C2)c(=O)[nH]c1=O (stereo unspecified),inactive,
O=C(C1=C[C@H](c2ccc(C(F)(F)F)cc2)C[C@H](OCc2ccc(CO)cc2)O1)N1CCN(Cc2ccccc2)CC1,"inconclusive [cytotoxic, partial curve]",
C=CCCCCCCCCC(=O)N1CCN(c2cc3c(cc2F)c(=O)c(C(=O)O)cn3CC)CC1,inactive,
CCCc1c(-c2cccc(Br)c2)ncn1Cc1ccccc1OC,"inconclusive [cytotoxic, single point]",
O=C(Nc1nc(-c2ccc(-c3ccccc3)cc2)cs1)C1CCCO1 (stereo unspecified),,inconclusive: -34.7% [cytotoxic]
CC(C)(C)NC(=O)CSc1ncnc2c1nnn2Cc1ccccc1Cl,"inconclusive [cytotoxic, single point]",
C/C(=N\NC(=O)c1cccc2ccccc12)c1cccs1,,inconclusive: 33.1%
COc1ccc(NC(=O)Nc2nnc(-c3ccccc3F)s2)cc1,,inconclusive: 33.1%
Cc1ccc(NC(=O)CSc2nnc(-c3cccnc3)n2-c2ccc(C)cc2)cc1,"inconclusive [cytotoxic, single point]",
CCOc1cccc(CNc2ccc(O)cc2)c1OCc1ccc(Cl)cc1,inactive,
N/C(=N\OC(=O)C12CC3CC(CC(C3)C1)C2)c1ccccn1,"inconclusive [cytotoxic, single point]",
CN(C)CCCNc1ncnc2c1c(-c1ccccc1)cn2-c1ccccc1,"inconclusive [cytotoxic, single point]",
CC(C)C[C@H](NC(=O)OC(C)(C)C)C(=O)N/N=C/C1=Cc2ccccc2OC1C (stereo partly specified),"inconclusive [cytotoxic, single point]",
CN1C(=O)C(O)(C2COC(C)(C)CC2=O)c2cc(Br)ccc21 (stereo unspecified),,inconclusive: -30% [cytotoxic]
CCOC(=O)C1=C[C@@H](C(C)(C)C)N(S(=O)(=O)c2ccc(OC)cc2)[C@H]1c1ccccc1,"inconclusive [cytotoxic, single point]",
COc1ccc(CN2CCN(Cc3ccc4cc(F)ccc4n3)CC2CCO)c(C)c1C (stereo unspecified),active: 18.4 µM,
COc1cc(-c2cc(NC(C)=O)c3ncc(-c4ccc(C(C)=O)cc4)n3c2)cc(OC)c1OC,"inconclusive [cytotoxic, single point]",
CN(CC(=O)NCCc1ccc(S(N)(=O)=O)cc1)Cc1ccc(Cl)cc1Cl,inactive,
O=C(c1ccccc1)N1CCN(C(=S)NCc2ccco2)CC1,"inconclusive [rising, partial curve]",
OCCNCc1cc(Br)ccc1OCc1ccc(Cl)cc1Cl,"inconclusive [cytotoxic, single point]",
